T1: Mouse GLP-1R (mouse, UniProt O35659 22-463)
T1 sequence (looked up): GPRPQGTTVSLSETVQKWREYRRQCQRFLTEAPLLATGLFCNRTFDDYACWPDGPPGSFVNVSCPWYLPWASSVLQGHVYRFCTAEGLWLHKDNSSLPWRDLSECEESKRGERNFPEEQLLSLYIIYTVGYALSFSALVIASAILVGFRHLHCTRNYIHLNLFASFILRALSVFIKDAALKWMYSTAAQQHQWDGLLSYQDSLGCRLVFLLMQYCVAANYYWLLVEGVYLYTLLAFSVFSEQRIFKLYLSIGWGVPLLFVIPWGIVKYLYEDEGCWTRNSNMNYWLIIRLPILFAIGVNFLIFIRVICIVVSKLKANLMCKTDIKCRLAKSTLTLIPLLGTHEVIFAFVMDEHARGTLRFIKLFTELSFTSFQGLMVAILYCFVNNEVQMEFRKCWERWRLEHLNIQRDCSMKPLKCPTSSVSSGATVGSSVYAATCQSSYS

B1: GLP-1RA/FGF21 Fc fusion protein SEQ ID NO: 183 (Fc fusion)
chain: HGEGTFTSDKSKQLAERLVREFIEWLIAGGHSSGKPPPKGGGGGGGSGGGGSGGGGSA[… human IgG4 Fc with changes …]GGGSGSAHPIPDSSPLLQFGGQVRQRYLYTDDACQTEAHLEIREDGTVGGAADQSPESLLQLKALKPGVIQILGVKTSRFLCQRPDGALYGSLHFDPEACSFRELLLEDGYNVYQSEAHGLPLHLPGCKSPHRDPAPRGPARFLPLPGLPPAPPEPPGILAPQPPDVGSSDPLSMVGSQGRSPSYAS
B2: GLP-1RA/FGF21 Fc fusion protein SEQ ID NO: 162 (Fc fusion)
chain: HGEGTFTSDKSKQLAKRLAHLFIEWLIAGGHSSGKPPPKGGGGGGGSGGGGSGGGGSA[… human IgG4 Fc with changes …]GGGSGSAHPIPDSSPLLQFGGQVRQRYLYTDDACQTEAHLEIREDGTVGGAADQSPESLLQLKALKPGVIQILGVKTSRFLCQRPDGALYGSLHFDPEACSFRELLLEDGYNVYQSEAHGLPLHLPGCKSPHRDPAPRGPARFLPLPGLPPAPPEPPGILAPQPPDVGSSDPLSMVGSQGRSPSYAS
B3: GLP-1RA/FGF21 Fc fusion protein SEQ ID NO: 147 (Fc fusion)
chain: HGEGTFTSDKSQLLEKRLAHLFIEWLLKGGHSSGRPPPKGGGGGGGSGGGGSGGGGSA[… human IgG4 Fc with changes …]GGGSGSAHPIPDSSPLLQFGGQVRQRYLYTDDACQTEAHLEIREDGTVGGAADQSPESLLQLKALKPGVIQILGVKTSRFLCQRPDGALYGSLHFDPEACSFRELLLEDGYNVYQSEAHGLPLHLPGCKSPHRDPAPRGPARFLPLPGLPPAPPEPPGILAPQPPDVGSSDPLSMVGSQGRSPSYAS
B4: GLP-1RA/FGF21 Fc fusion protein SEQ ID NO: 184 (Fc fusion)
chain: HGEGTFTSDKSKQLAERLVKLFIEWLIAGGHSSGKPPPKGGGGGGGSGGGGSGGGGSA[… human IgG4 Fc with changes …]GGGSGSAHPIPDSSPLLQFGGQVRQRYLYTDDACQTEAHLEIREDGTVGGAADQSPESLLQLKALKPGVIQILGVKTSRFLCQRPDGALYGSLHFDPEACSFRELLLEDGYNVYQSEAHGLPLHLPGCKSPHRDPAPRGPARFLPLPGLPPAPPEPPGILAPQPPDVGSSDPLSMVGSQGRSPSYAS
B5: GLP-1RA/FGF21 Fc fusion protein SEQ ID NO: 156 (Fc fusion)
chain: HGEGTFTSDKSQLLEKRLAHLFIEWLIAGGHSSGRLSPKGGGGGGGSGGGGSGGGGSA[… human IgG4 Fc with changes …]GGGSGSAHPIPDSSPLLQFGGQVRQRYLYTDDACQTEAHLEIREDGTVGGAADQSPESLLQLKALKPGVIQILGVKTSRFLCQRPDGALYGSLHFDPEACSFRELLLEDGYNVYQSEAHGLPLHLPGCKSPHRDPAPRGPARFLPLPGLPPAPPEPPGILAPQPPDVGSSDPLSMVGSQGRSPSYAS
B6: GLP-1RA/FGF21 Fc fusion protein SEQ ID NO: 158 (Fc fusion)
chain: HGEGTFTSDKSQLLEKRLAHLFIEWLIKGGHSKGRPPPKGGGGGGGSGGGGSGGGGSA[… human IgG4 Fc with changes …]GGGSGSAHPIPDSSPLLQFGGQVRQRYLYTDDACQTEAHLEIREDGTVGGAADQSPESLLQLKALKPGVIQILGVKTSRFLCQRPDGALYGSLHFDPEACSFRELLLEDGYNVYQSEAHGLPLHLPGCKSPHRDPAPRGPARFLPLPGLPPAPPEPPGILAPQPPDVGSSDPLSMVGSQGRSPSYAS
B7: GLP-1RA/FGF21 Fc fusion protein SEQ ID NO: 157 (Fc fusion)
chain: HGEGTFTSDKSQLLEKRLAHLFIEWLIAGGPSKGRPPPKGGGGGGGSGGGGSGGGGSA[… human IgG4 Fc with changes …]GGGSGSAHPIPDSSPLLQFGGQVRQRYLYTDDACQTEAHLEIREDGTVGGAADQSPESLLQLKALKPGVIQILGVKTSRFLCQRPDGALYGSLHFDPEACSFRELLLEDGYNVYQSEAHGLPLHLPGCKSPHRDPAPRGPARFLPLPGLPPAPPEPPGILAPQPPDVGSSDPLSMVGSQGRSPSYAS
B8: GLP-1RA/FGF21 Fc fusion protein SEQ ID NO: 186 (Fc fusion)
chain: HGEGTFTSDKSKQLAERLAKLFIEWLIAGGHSSGKPPPKGGGGGGGSGGGGSGGGGSA[… human IgG4 Fc with changes …]GGGSGSAHPIPDSSPLLQFGGQVRQRYLYTDDACQTEAHLEIREDGTVGGAADQSPESLLQLKALKPGVIQILGVKTSRFLCQRPDGALYGSLHFDPEACSFRELLLEDGYNVYQSEAHGLPLHLPGCKSPHRDPAPRGPARFLPLPGLPPAPPEPPGILAPQPPDVGSSDPLSMVGSQGRSPSYAS
B9: GLP-1RA/FGF21 Fc fusion protein SEQ ID NO: 166 (Fc fusion)
chain: HGEGTFTSDKSKQLAKRLVREFIEWLIKGGHSSGKPPPKGGGGGGGSGGGGSGGGGSA[… human IgG4 Fc with changes …]GGGSGSAHPIPDSSPLLQFGGQVRQRYLYTDDACQTEAHLEIREDGTVGGAADQSPESLLQLKALKPGVIQILGVKTSRFLCQRPDGALYGSLHFDPEACSFRELLLEDGYNVYQSEAHGLPLHLPGCKSPHRDPAPRGPARFLPLPGLPPAPPEPPGILAPQPPDVGSSDPLSMVGSQGRSPSYAS
B10: GLP-1RA/FGF21 Fc fusion protein SEQ ID NO: 161 (Fc fusion)
chain: HGEGTFTSDKSKQLAKRLVRLFIEWLIAGGHSSGKPPPKGGGGGGGSGGGGSGGGGSA[… human IgG4 Fc with changes …]GGGSGSAHPIPDSSPLLQFGGQVRQRYLYTDDACQTEAHLEIREDGTVGGAADQSPESLLQLKALKPGVIQILGVKTSRFLCQRPDGALYGSLHFDPEACSFRELLLEDGYNVYQSEAHGLPLHLPGCKSPHRDPAPRGPARFLPLPGLPPAPPEPPGILAPQPPDVGSSDPLSMVGSQGRSPSYAS
B11: GLP-1RA/FGF21 Fc fusion protein SEQ ID NO: 170 (Fc fusion)
chain: HGEGTFTSDKSKQLAKRLVREFIEWLIEGGHSSGKPPPKGGGGGGGSGGGGSGGGGSA[… human IgG4 Fc with changes …]GGGSGSAHPIPDSSPLLQFGGQVRQRYLYTDDACQTEAHLEIREDGTVGGAADQSPESLLQLKALKPGVIQILGVKTSRFLCQRPDGALYGSLHFDPEACSFRELLLEDGYNVYQSEAHGLPLHLPGCKSPHRDPAPRGPARFLPLPGLPPAPPEPPGILAPQPPDVGSSDPLSMVGSQGRSPSYAS
B12: GLP-1RA/FGF21 Fc fusion protein SEQ ID NO: 153 (Fc fusion)
chain: HGEGTFTSDKSQLLEKRLAHLFIEWLLAGGHSSIKPPPKGGGGGGGSGGGGSGGGGSA[… human IgG4 Fc with changes …]GGGSGSAHPIPDSSPLLQFGGQVRQRYLYTDDACQTEAHLEIREDGTVGGAADQSPESLLQLKALKPGVIQILGVKTSRFLCQRPDGALYGSLHFDPEACSFRELLLEDGYNVYQSEAHGLPLHLPGCKSPHRDPAPRGPARFLPLPGLPPAPPEPPGILAPQPPDVGSSDPLSMVGSQGRSPSYAS
B13: GLP-1RA/FGF21 Fc fusion protein SEQ ID NO: 148 (Fc fusion)
chain: HGEGTFTSDKSQLLEKRLAHLFIEWLIAGGPSSGKYSPKGGGGGGGSGGGGSGGGGSA[… human IgG4 Fc with changes …]GGGSGSAHPIPDSSPLLQFGGQVRQRYLYTDDACQTEAHLEIREDGTVGGAADQSPESLLQLKALKPGVIQILGVKTSRFLCQRPDGALYGSLHFDPEACSFRELLLEDGYNVYQSEAHGLPLHLPGCKSPHRDPAPRGPARFLPLPGLPPAPPEPPGILAPQPPDVGSSDPLSMVGSQGRSPSYAS
B14: GLP-1RA/FGF21 Fc fusion protein SEQ ID NO: 165 (Fc fusion)
chain: HGEGTFTSDLSKQLAKRLVRLFIEWLIKGGHSSGKPPPKGGGGGGGSGGGGSGGGGSA[… human IgG4 Fc with changes …]GGGSGSAHPIPDSSPLLQFGGQVRQRYLYTDDACQTEAHLEIREDGTVGGAADQSPESLLQLKALKPGVIQILGVKTSRFLCQRPDGALYGSLHFDPEACSFRELLLEDGYNVYQSEAHGLPLHLPGCKSPHRDPAPRGPARFLPLPGLPPAPPEPPGILAPQPPDVGSSDPLSMVGSQGRSPSYAS
B15: GLP-1RA/FGF21 Fc fusion protein SEQ ID NO: 181 (Fc fusion)
chain: HGEGTFTSDKSKQLAKRLAQEFIEWLIKGGHSSGKPPPKGGGGGGGSGGGGSGGGGSA[… human IgG4 Fc with changes …]GGGSGSAHPIPDSSPLLQFGGQVRQRYLYTDDACQTEAHLEIREDGTVGGAADQSPESLLQLKALKPGVIQILGVKTSRFLCQRPDGALYGSLHFDPEACSFRELLLEDGYNVYQSEAHGLPLHLPGCKSPHRDPAPRGPARFLPLPGLPPAPPEPPGILAPQPPDVGSSDPLSMVGSQGRSPSYAS
B16: GLP-1RA/FGF21 Fc fusion protein SEQ ID NO: 219 (Fc fusion)
chain: GHGEGTFTSDKSKQLEEEAVRLFIEWLKAGGGGGGGGGSGGGGSGGGGSA[… human IgG1 Fc with changes …]GGGSGSAHPIPDSSPLLQFGGQVRQRYLYTDDACQTEAHLEIREDGTVGGAADQSPESLLQLKALKPGVIQILGVKTSRFLCQRPDGALYGSLHFDPEACSFRELLLEDGYNVYQSEAHGLPLHLPGCKSPHRDPAPRGPARFLPLPGLPPAPPEPPGILAPQPPDVGSSDPLSMVYPSQGRSPSYAS
B17: GLP-1RA/FGF21 Fc fusion protein SEQ ID NO: 217 (Fc fusion)
chain: YSEGTFTSDLSILCEKRAVHEFIEWLIAGGPSSGKPPPKPGCGSGGGGGSGGGGSGGGGGA[… human IgG1 Fc with changes …]GGGSGSAHPIPDSSPLLQFGGQVRQRYLYTDDACQTEAHLEIREDGTVGGAADQSPESLLQLKALKPGVIQILGVKTSRFLCQRPDGALYGSLHFDPEACSFRELLLEDGYNVYQSEAHGLPLHLPGCKSPHRDPAPRGPARFLPLPGLPPAPPEPPGILAPQPPDVGSSDPLSMVYPSQGRSPSYAS

molecular target: human glucagon-like peptide-1 (GLP-1) receptor (human, UniProt P43220 24-463); test: cell-based or functional assay

Row | Binder | HTRF cAMP EC50 [nM]
1 | B1 | 0.0738
2 | B2 | 0.27
3 | B3 | 0.0101
4 | B4 | 0.216
5 | B5 | 0.00922
6 | B6 | 0.0087
7 | B7 | 0.0121
8 | B8 | 0.124
9 | B9 | 0.16
10 | B10 | 0.252
11 | B11 | 0.234
12 | B12 | 0.00998
13 | B13 | 0.00848
14 | B14 | 0.173
15 | B15 | 0.137
16 | B16 | 0.222
17 | B17 | 0.00762

molecular target: T1, Mouse GLP-1R; test: cell-based or functional assay

Row | Binder | HTRF cAMP EC50 [nM]
18 | B16 | 0.422
19 | B17 | 0.00539

From patent US20230250147A1 (Sanofi, published 2023)
